# Source: PubChem BioAssay AID686979 (National Center for Advancing Translational Sciences (NCATS), 2013)
# The whole screen tested about 420,000 compounds, of which about 50,000 (12%) were called active. Inconclusive results, whose numbers are uncertain, are shown with a selection of clear calls. The call rests on the fitted dose curve; in most records, active means well fitted inhibition curve with a large enough effect; inconclusive means small, poorly fitted or top-dose-only effect; inactive means flat fitted curve, though single readings scatter. No potency is given beside an inconclusive call; the fits are too rough.
# Experiment: qHTS for Inhibitors of human tyrosyl-DNA phosphodiesterase 1 (TDP1): qHTS in cells in presence of CPT; further: nearly all actives have a fitted effect of over 55% in size
# Conditions: chicken DT40 Tdp1-/-;hTDP1 cells + 20 nM CPT, ATP luminescence, 48 h; activity change, negative = growth inhibition: at 46.2 µM (top of the series)
# Procedure, shortened: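 Cell growth measured by CellTiter-Glo luminescence after a minimum 48 h, 37 C compound exposure with 20 nM CPT in Tdp1-knockout DT40 cells stably expressing hTDP1, seeded 400/well; qHTS titration format.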
# On the % scale 0 is the no-effect control and ±100 the full control effect; potency means the concentration at half of the fitted maximal effect; tags describe the fitted curve by direction and shape.
SMILES,Potency,"activity change, negative = growth inhibition"
O=C(COC(=O)/C=C/c1cccc(C(F)(F)F)c1)Nc1ccc(Cl)cn1,inactive,–
OCC1(Cc2ccccc2)CCCN(Cc2ccc3c(c2)OCCO3)C1 (configuration not stated),inactive,–
O=C(CCC(=O)Nc1ccccc1Cl)NNC(=O)COc1ccc([N+](=O)[O-])cc1,inactive,–
COc1ccc(-n2ncc(C(C)NS(=O)(=O)c3ccc(C)s3)c2C)cc1 (configuration not stated),"inconclusive [inhibitor, single point]",–
CCOc1ccc(NC(=O)c2ccc3c(c2)C(=O)N(Cc2ccncc2)C3=O)cc1,"inconclusive [inhibitor, partial curve]",–
COC(=O)c1scc(-c2ccc(C)cc2)c1S(=O)(=O)N1CCN(c2ccc(C)cc2C)CC1,active: 14.6 µM,–
Cc1c(O)ccc2c(CC(=O)N[C@@H](Cc3ccc(O)cc3)C(=O)O)cc(=O)oc12,inactive,–
O=C(OCC(=O)N1CCOCC1)c1cc2ccccc2oc1=O,inactive,–
Cc1ccc2c(c1)N(CCC(=O)NC(C)C)C(=O)CO2,–,inconclusive: -31.6% [inhibitor]
COc1ccc(-c2csc(NC(=O)CSCc3c(C)noc3C)n2)cc1OC,"inconclusive [inhibitor, single point]",–
CCOC(=O)C(=CNc1ccc(Oc2cccnc2)nc1)C(=O)OCC,"inconclusive [inhibitor, single point]",–
CC1CN(c2ncnc3c2oc2ccccc23)CC(C)O1 (configuration not stated),"inconclusive [inhibitor, single point]",–
CCCCCCCCC(=O)N/N=C(\C)c1ccc(O)cc1O,"inconclusive [inhibitor, single point]",–
CCCCN(CC)CCCNC(=O)c1cc2c(=O)n(CC)c3ccccc3c2s1,"inconclusive [inhibitor, single point]",–
Cc1ccccc1Nc1nc(N)nc(COC(=O)c2c(C)noc2C)n1,"inconclusive [inhibitor, single point]",–
O=C(NC1CCN(Cc2ccc(Cl)c(Cl)c2)CC1)c1ccccc1,active: 20.6 µM,–
O=C(Cn1nc(-c2ccc(Cl)cc2)c2ccccc2c1=O)Nc1cccc(C(F)(F)F)c1,"inconclusive [inhibitor, single point]",–
CCCC(=O)Nc1ccc(S(=O)(=O)Nc2cc(OC)ncn2)cc1,inactive,–
CCOc1ccc(N(C)S(=O)(=O)c2ccc(C)c(C(=O)N3CCN(Cc4ccc5c(c4)OCO5)CC3)c2)cc1,"inconclusive [inhibitor, single point]",–
S=c1[nH]nc(-c2ccc(Br)o2)n1Cc1ccccc1,"inconclusive [inhibitor, single point]",–
Cn1c(SCc2cc(=O)c3cc(Cl)ccc3[nH]2)nnc1-c1ccccc1,active: 13 µM,–
Cc1csc(NC(=O)Cn2nc(C)c([N+](=O)[O-])c2C)n1,inactive,–
CN(C)C(=O)c1ccc(-c2cc(NCc3ccccc3)ncn2)cc1,inactive,–
COc1cccc(NC(=S)N2CCC(N(C)CC3CCCO3)CC2)c1 (configuration not stated),inactive,–

SMILES,Potency,"activity change, negative = growth inhibition"
COc1cc(COc2ccc(-c3nnco3)cc2)ccc1OC(F)F,inactive,–
COc1cccc(Nc2nc3ccccc3c3nncn23)c1,active: 16.4 µM,–
CC(C)C(NC(=O)c1ccc(C(C)(C)C)cc1)C(=O)NC1=NCCS1 (configuration not stated),–,inconclusive: -32.2% [inhibitor]
CCOC(=O)C1CCN(C(=O)C(C)Sc2ccc(Cl)cc2)CC1 (configuration not stated),"inconclusive [inhibitor, single point]",–
COc1ccc(OC)c(NC(=O)CN2C(=O)C3(OCCCO3)c3ccccc32)c1,inactive,–
CCCCC(=O)Nc1ccc(OCc2cc(=O)n3c(C)csc3n2)cc1,"inconclusive [inhibitor, partial curve, poor fit]",–
CCCCCCCCCCCCN1C/C(=C\C(=O)OCC)c2ccccc2S1(=O)=O,active: 15.8 µM,–
CC(=O)c1ccc(S(=O)(=O)N2CCC(C(=O)Nc3ncc(C)s3)CC2)cc1,inactive,–
CC(C)c1ccc(NC(=S)N2CCCC2)cc1,"inconclusive [inhibitor, single point]",–
O=C1CC(N(CCc2ccccc2)C(=S)Nc2ccccc2)C(=O)N1c1ccccc1 (configuration not stated),"inconclusive [inhibitor, single point]",–
COc1ccc(C(CCNCc2ccccc2)c2ccc(F)cc2)cc1 (configuration not stated),"inconclusive [inhibitor, single point]",–
COc1cc(C(=O)N2CCN(c3cc(Cl)ccc3Cl)CC2)cc(OC)c1OC,active: 0.517 µM,–
CC1(c2nnc(-c3cccc(Cl)c3)o2)CC(c2ccc(C#N)cc2)=NO1 (configuration not stated),"inconclusive [inhibitor, single point]",–
O=C(NCc1ccccc1Cl)c1c2c(nc3ccccc13)C(=O)N(C1CCCCC1)C2,active: 18.4 µM,–
CCCc1cc(-c2n[nH]c(C(=O)OCC)c2-c2cscn2)c(O)cc1O,"inconclusive [inhibitor, single point]",–
CS(=O)(=O)N1CCc2cc(-c3csc(NC(=O)C(c4ccccc4)c4ccccc4)n3)ccc21,active: 11.6 µM,–
COc1ccc(-c2noc(N3CCCC(C(=O)Nc4ccc(C(C)=O)cc4)C3)n2)cc1 (configuration not stated),"inconclusive [inhibitor, single point]",–
CC(=O)Nc1cccc(OCc2ccc(S(=O)(=O)Cc3ccccc3)cc2)c1,"inconclusive [inhibitor, single point]",–
COc1cccc2c1C(CO)N1C(C#N)C3CC(C(=O)O)C(C1C2)N3C (configuration not stated),active: 0.184 µM,–
CCOC(=O)c1ccc(N2C(=O)C(CC(=O)NC)N(CCc3ccc(OC)c(OC)c3)C2=S)cc1 (configuration not stated),"inconclusive [inhibitor, single point]",–
Nc1cc2nn(-c3ccccc3)nc2cc1Cl,inactive,–
O=C(NC1CC1)c1cccc(NC(=O)C2CCN(S(=O)(=O)c3cccc(C(F)(F)F)c3)CC2)c1,"inconclusive [inhibitor, single point]",–
C#CCOCCOCCOCCNc1nc(N2CCN(C(=O)CCCCCCCCCCNC(=O)Cn3cc(C[C@@H](C)O)nn3)CC2)nc(N2CCN(C(=O)CCCCCCCCCCNC(=O)[C@@H](CCSC)n3cc(CCO)nn3)CC2)n1,"inconclusive [inhibitor, partial curve, poor fit]",–
COc1cc2c(NC3CCN(C)CC3)nc(N3CCCN(C)CC3)nc2cc1OCCN(C)CCN(C)C,inactive,–

SMILES,Potency,"activity change, negative = growth inhibition"
CCOc1ccc(-c2ccc(SC)nn2)cc1,inactive,–
CC(C)NC(=O)N[C@H]1CC[C@H](CC(=O)NCc2ccc(Oc3ccccc3)cc2)O[C@@H]1CO,"inconclusive [inhibitor, full curve, poor fit]",–
Cc1c(C)n(CCc2ccccc2)c2ncnc(NN)c12,"inconclusive [inhibitor, single point]",–
O=C(NC1CCCC1)C(c1ccc(F)cc1)N1CCC(O)(c2ccc(Cl)cc2)CC1 (configuration not stated),"inconclusive [inhibitor, single point]",–
COc1ccc(NC(=O)Cn2ncn3nc(-c4ccc(OC)cc4)cc3c2=O)cc1,inactive,–
Cc1cccc(NC(=O)Cn2c(/C=C/c3ccccc3)nc3ccccc32)c1,"inconclusive [inhibitor, single point]",–
C/C(=N\NC(=O)CSCc1ccc([N+](=O)[O-])cc1)c1ccccc1,"inconclusive [inhibitor, single point]",–
O=C(Nc1cccc(F)c1)C1CCCCC1,inactive,–
CCN(CC)c1ccc(C2C(C(=O)Nc3ccccc3C)=C(C)Nc3ncnn32)cc1 (configuration not stated),inactive,–
O=C1NC[C@@H](CCCCN2C[C@H](Cc3ccccc3)N(CCC3CCCCC3)C(=O)C2=O)N(CCc2ccccc2)C1=O,"inconclusive [inhibitor, single point]",–
CC(Oc1ccc(Cl)cc1Cl)C(=O)NCc1ccncc1 (configuration not stated),"inconclusive [inhibitor, single point]",–
c1ccc2c(c1)oc1c(Nc3ccc4c(c3)OCCO4)ncnc12,active: 8.91 µM,–
Cc1cccc(CCn2c(=O)c3ccccc3n(CC(=O)Nc3ccccc3F)c2=O)c1,"inconclusive [inhibitor, single point]",–
N/C(=N\OCC(=O)Nc1ccc(F)c(Cl)c1)c1ccccc1,active: 23.1 µM,–
C=CCNc1nc(Nc2ccc(-c3nc4ccccc4o3)cc2)nc(N2CCOCC2)n1,active: 29.1 µM,–
COc1ccc(NC(=O)c2cc(C3CCCCN3C(=O)c3cccs3)on2)c(C)c1 (configuration not stated),active: 20.6 µM,–
CCn1c2ccccc2c2nc3cc(OC)c(OC)cc3nc21,active: 13 µM,–
CCOC(=O)c1c(C)[nH]c(C2=NNC(=Nc3ccccc3)SC2)c1C,active: 13 µM,–
Nc1nc2ccccc2n1CCOc1ccc(Cl)cc1,"inconclusive [inhibitor, single point]",–
CCCCSc1nnc(CSc2nc3nc(C)cc(C)n3n2)o1,"inconclusive [inhibitor, partial curve]",–
Cc1cc(NC(=S)N(Cc2cccc(Br)c2)CC2CCC(C(=O)O)CC2)ccc1Cl (configuration not stated),–,inconclusive: -31.1% [inhibitor]
COc1ccc(C=NN=C2c3ccccc3-c3ccccc32)cc1O,"inconclusive [inhibitor, single point]",–
COc1cc(/C=C/C(=O)OCC(=O)Nc2nnc(-c3ccccc3)o2)cc(OC)c1OC,inactive,–
CCCc1nc(NC(=O)c2ccccc2)nc(NC(=O)c2ccccc2)n1,–,inconclusive: -30.3% [inhibitor]
